From the RNAGym collection of RNA variant scans (doi:10.7554/elife.90254) come the findings set out here.

Read counts are not given, so values of variants with three or more changes are uncertain.

B1: LINE1-mini (parent)
chain: GGCAGAGCUCAACACAGCGUGGCAAAGUGGCUGUGGCUAGACUGCC

Variants of B1 are the subject of the data set. The experiment in a line: self-cleavage, relative activity (ratio to wild type); higher = more cleavage; in vitro, sequencing; the parent is a self-cleaving ribozyme.
On to GGCAGAGCUCAAGACAGCUUGGCAAAGUGGCUGUUGCUAGGCUGCC [C13G G19U G35U A41G], for which the self-cleavage is 0.02.
To GGCAGAGCUCAAUACGGCCUGGCAAAGUGGCUGUGGCUAGACUGCC [C13U A16G G19C] belongs 0.03; to GGCAGAGCUCAAGACACCAUUUCAAAGUGGCUGUGGCUAGACUGCG [C13G G17C G19A G21U G22U C46G], 0.04.
To GGCAGAGCUCAAUACAGCGUGGCGAAUUGGCUGUGGCUAGACUGCC [C13U A24G G27U] belongs 0.1; to GGCAGAGCUCAAGACAGCGUGGCAAAGGGGCUGUGGCUAGACCGCC [C13G U28G U43C], 0.08; to GGCAGAGCUCAAGACAGCGUGGCACAGUGGCUCUGGCUAGACUGAA [C13G A25C G33C C45A C46A], 0.02.
Take GGCAGAGCUCAAUACUGCGUGGCAAAGUGGCUGUGGCUCGACUGCC [C13U A16U A39C]: the self-cleavage was determined as 0.05.
To GGCAGAGCUCAAGACAUCGUGGCAAAGUGGCUGUGGCUAGCCUGCA [C13G G17U A41C C46A] belongs 0.02.
To GGCAGAGCUCAAGACAGCGUGGCAACGUGGCUGUGGCUAAACUGCC [C13G A26C G40A] belongs 0.08; to GGCAGAGCUCAAGUCCGCUUGGGAAAGUGGCUUUGGCUAGACUGCC [C13G A14U A16C G19U C23G G33U], 0.03; to GGCAGAGCUCAAGACAGCGUGGCAAAGUGGCCGUGGCUUGAUUGCC [C13G U32C A39U C42U], 0.05.
Next, GGCAGAGCUCAAUACAGCGUGGCAAUGUAGCUGUGGCUAGACUGCC [C13U A26U G29A]: 0.19; GGCAGAGCUCAAGACAACGUGGCAAAGUGACUGUGGCUAGAAUGCC [C13G G17A G30A C42A]: 0.01.
As to GGCAGAGCUCAAGACAGCGUGGCAAAUUGGCUGUGGCUAGACUGUC [C13G G27U C45U], the self-cleavage is 0.24.
Next, GGCAGAGCUCAAGUCAGCGUGCCAAAGUGGCUGUGGCUAGACUGCC [C13G A14U G22C]: 0.06; GGCAGAGCUCAAGACAGCGUGGCUAAGUGGCUGUGGCUAGACUACC [C13G A24U G44A]: 0.04; GGCAGAGCUCAAUACUGCGUGGCAAAGUGACUGUGGCCAGACUGUC [C13U A16U G30A U38C C45U]: 0.04.
Next, GGCAGAGCUCAAGACUGCGUGGCACAGUGGCUGUGGCUAGACUGCC [C13G A16U A25C]: 0.13; GGCAGAGCUCAAUACAGCGUGGCAAAGUGGCUGUGGCUAGGCUGAC [C13U A41G C45A]: 0.02.
Next, GGCAGAGCUCAAGACAGCGUGGCAGAGUGGCUGUGGCUAGACUGGC [C13G A25G C45G]: 0.07; GGCAGAGCUCAAGACAGCGAGGCAAAGUGGCUGUGGCUAGAUUGCC [C13G U20A C42U]: 0.01; GGCAGAGCUCAAGACAGUGUGGCAAAGUGGCUGUGGCUAAACUGAC [C13G C18U G40A C45A]: 0.02.
On to GGCAGAGCUCAAUGCAGUCUGGCAAAGAGGCUGUGGCUAGACUGGC [C13U A14G C18U G19C U28A C45G], for which the self-cleavage was determined as 0.02.
Next, GGCAGAGCUCAAGACAACGUGGCUAAGUGGCUCUGGCUAGACUGCC [C13G G17A A24U G33C]: 0.04; GGCAGAGCUCAAGACAGCGUGGCAAAGUUUCUGUGGCUAGACUGCC [C13G G29U G30U]: 0.1.
Next, GGCAGAGCUCAAGACAACGUGGCAAAGUCGCGGUGGCUUGACCGCG [C13G G17A G29C U32G A39U U43C C46G]: 0.03.
To GGCAGAGCUCAAUACAGCGUGGCAAAGUGGCUGUGGCUGGACAGCC [C13U A39G U43A] belongs 0.14; to GGCAGAGCUCAAGAAAGCGUGGCAAAGUGGCUGUGGUUAUACUGCC [C13G C15A C37U G40U], 0; to GGCAGAGCUCAAUGCAGCGUGGCAAGGUGGCUGUGGGUAGACUGCC [C13U A14G A26G C37G], 0.03.
Consider GGCAGAGCUCAAGAAAACGUGGCAAAGUAGCUGUCGCUAGACUGCC [C13G C15A G17A G29A G35C], for which the self-cleavage was 0.23.
Next, GGCAGAGCUCAAGACAGCGUGGCCAAGUGGCUGCGGCUAGACUGCC [C13G A24C U34C]: 0.07; GGCAGAGCUCAAUACAGCGUGGCAACGUGGCUGUGGCUAGACUGCG [C13U A26C C46G]: 0.11; GGCAGAGCUCAAUACAGCGUGGCAACGUGGCUGUGGCUAGACUGCA [C13U A26C C46A]: 0.22.
To GGCAGAGCUCAAGACAGCGUUGCAAAGUGGCUGCUGCUAGACUGCC [C13G G21U U34C G35U] belongs 0.08; to GGCAGAGCUCAAGACAGCGUGGCAAAGUGUCUGUAGCUAGACUGCC [C13G G30U G35A], 0.06.
With GGCAGAGCUCAAGAUAGCGUGGCAAAGUCGCUGUGGCUAGACUGCC [C13G C15U G29C], the self-cleavage came to 0.02.
Next, GGCAGAGCUCAAGACAGCGUGGCAAAGGGGCUCUGGCUAGACUGCC [C13G U28G G33C]: 0.02; GGCAGAGCUCAAGACAGCGAGGCAAAGUGGCUGUGUCUAGAGUGCC [C13G U20A G36U C42G]: 0.02.
Take GGCAGAGCUCAAUUCAUCGUGGCAAAGUGGCUGUGGCUAGACUGCC [C13U A14U G17U]: the self-cleavage stood at 0.05.
To GGCAGAGCUCAAGACAGCGUGGCAAACUGGCUGUGGCUAGACUGCU [C13G G27C C46U] belongs 0.06; to GGCAGAGCUCAAGACAGCGUGGCAAAGUGGCAGUUUCUAGUCUGCC [C13G U32A G35U G36U A41U], 0.03.
To GGCAGAGCUCAAGACAGAGUGGCAAAGUGGCUGUGGCUAGACUAUC [C13G C18A G44A C45U] belongs 0.01; to GGCAGAGCUCAAUACAGCGUGGCCAAGUGUCUGUGGCUAGACUGCC [C13U A24C G30U], 0.06; to GGCAGAGCUCAAGACAGCGAGGCAAAGUGACUGUGGCUAGCAUGCC [C13G U20A G30A A41C C42A], 0.03.
To GGCAGAGCUCAAGACAGCGUGGUAAAGUGGCUGUGGCUCGACUGCC [C13G C23U A39C] belongs 0.03; to GGCAGAGCUCAAUACAGCGUGGCAUAGUGGCUGUGGCUAGACUGCU [C13U A25U C46U], 0.04.
GGCAGAGCUCAAGAUAGCGUGUCAAAGUGGCUGUGCCUAGACUGCC [C13G C15U G22U G36C]: the self-cleavage was determined as 0.02.
To GGCAGAGCUCAAUCCUGCGUAGGAAAGUGGCUGUGGCUAGACUGCC [C13U A14C A16U G21A C23G] belongs 0.31; to GGCAGAGCUCAAGACAGGGUGGCAAAGUGGCUGUCGCUAAACUGCC [C13G C18G G35C G40A], 0.02; to GGCAGAGCUCAAGACACCGUGGGAAAGUGGCUGUGGCUAGAAUGCC [C13G G17C C23G C42A], 0.04.
Next, GGCAGAGCUCAAGAGAGCGUGGCUAAGUGGCUGUGGCUAGACUGCC [C13G C15G A24U]: 0.03; GGCAGAGCUCAAGACAGCGUGGCAAAGUGGCUGUGACUCGACUGCC [C13G G36A A39C]: 0.03.
Next, GGCAGAGCUCAAUAAAGCGUGGCCAAGUGGCUGUGGCUAGACUGCC [C13U C15A A24C]: 0.03; GGCAGAGCUCAAUGCAGCGUGGCAACGUGGCUUUGGCUAGACUGCC [C13U A14G A26C G33U]: 0; GGCAGAGCUCAAGACAGCGUGCCAAAGUGGCUGUGGCUAGACUGUC [C13G G22C C45U]: 0.49.
Consider GGCAGAGCUCAAGACAGCGUGGCAAGGUGGCUGUGUCUAGGCUGCC [C13G A26G G36U A41G], for which the self-cleavage came to 0.07.
